The whole screen tested about 220,000 compounds, of which about 16,000 (7.3%) were called active. The inconclusive results got no clear call from the source; some entries with a clear call stand among them for comparison. The call rests on the fitted dose curve; in most records, active means well fitted inhibition curve with a large enough effect (not every such curve was filed as active); inconclusive means small, poorly fitted or top-dose-only effect, or another doubt; inactive means no such curve, though single readings can be large or run the other way. No potency is given beside an inconclusive call; the fits are too rough.
The molecules below were run against Aldehyde dehydrogenase 1A1 (Homo sapiens) (UniProt P00352) (assay: qHTS Assay for Inhibitors of Aldehyde Dehydrogenase 1 (ALDH1A1)). Conditions: Purified ALDH1A1, NADH fluorescence, propionaldehyde substrate; series mostly up to 75.3 µM.
Sequence of UniProt P00352 (P00352 whole entry, looked up): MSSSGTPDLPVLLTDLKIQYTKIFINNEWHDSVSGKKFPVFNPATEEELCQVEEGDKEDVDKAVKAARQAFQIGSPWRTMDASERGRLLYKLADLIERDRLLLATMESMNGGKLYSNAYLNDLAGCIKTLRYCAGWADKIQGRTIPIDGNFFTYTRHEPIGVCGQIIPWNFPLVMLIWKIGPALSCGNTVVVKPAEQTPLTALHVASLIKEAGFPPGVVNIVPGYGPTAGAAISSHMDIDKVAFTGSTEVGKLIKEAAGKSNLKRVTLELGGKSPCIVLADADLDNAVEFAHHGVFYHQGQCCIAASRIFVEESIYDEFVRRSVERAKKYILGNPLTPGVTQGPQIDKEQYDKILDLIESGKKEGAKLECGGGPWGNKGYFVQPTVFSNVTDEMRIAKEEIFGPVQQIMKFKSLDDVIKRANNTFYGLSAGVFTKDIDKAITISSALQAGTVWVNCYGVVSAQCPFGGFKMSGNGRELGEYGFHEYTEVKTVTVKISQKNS
Potency means the concentration at half of the fitted maximal effect; tags describe the fitted curve by direction and shape.

Row | SMILES | Potency
1 | CC(=O)C1=C(O)C=C(c2ccco2)CC1c1ccco1 (configuration not stated) | inconclusive [inhibitor, single point]
2 | Cc1[nH]c2ccccc2c1/C=C(\C#N)S(=O)(=O)c1ccccc1 | inconclusive [inhibitor, single point]
3 | CCc1cc(C(=O)Nc2ccc(C)cc2Br)cs1 | inactive
4 | CCCCC/C=C\C\C=C/C=C/C=C/[C@@H](O)[C@@H](O)CCCC(=O)O | inactive
5 | Cc1ccc2nc(SCC(=O)Nc3ccccc3N3CCOCC3)c(C#N)cc2c1 | inactive
6 | COc1ccc(N(C(=O)c2cccnc2)S(=O)(=O)c2cccs2)cc1 | inconclusive [inhibitor, partial curve]
7 | CC(C)C(=O)NC(c1ccccc1)c1cc([N+](=O)[O-])c2cccnc2c1O (configuration not stated) | inactive
8 | CC(C)N1CCc2c(sc(NC(=O)c3ccc(S(=O)(=O)N4CCOCC4)cc3)c2C#N)C1 | active: 10 µM
9 | COc1ccc(CCN(C)C(=S)NC(=O)c2ccc(F)cc2Cl)cc1OC | inactive
10 | COc1ccc(/C=C2/SC(=S)N(n3c(C)ccc3C)C2=O)cc1 | active: 6.31 µM
11 | Cc1cc2c(c(=O)o1)C(C(C)C)C(C#N)=C(N)O2 (configuration not stated) | inconclusive [inhibitor, single point]
12 | CCS(=O)(=O)c1nc(S(=O)(=O)c2ccc(Cl)cc2)c(NCc2ccccn2)s1 | active: 12.6 µM
13 | CC(C)NC(=O)C1CCN(C2CCN(C(=O)c3scc4c3CCCC4)CC2)CC1 | inconclusive [inhibitor, single point]
14 | O=C(CSc1nc2ccccc2s1)CSc1nc2ccccc2s1 | inactive
15 | Cc1cc(N/C(=N/S(=O)(=O)c2ccc(F)cc2)c2ccccc2)n(-c2ccccc2)n1 | inconclusive [inhibitor, single point]
16 | Cc1c(-n2cc(C(=O)c3cc(F)ccc3O)cc(C#N)c2=O)c(=O)n(-c2ccccc2)n1C | inactive
17 | Cc1ccc(/C=N/c2sc3c(c2C(N)=O)CCCC3)o1 | inconclusive [inhibitor, single point]
18 | CCc1ccc2c(CN(CC)Cc3nc4ccccc4c(=O)[nH]3)cc(=O)oc2c1 | inconclusive [inhibitor, single point]
19 | CC(Oc1ccc([N+](=O)[O-])cc1Cl)C(=O)Nc1ccc(C(N)=O)cc1 (configuration not stated) | inconclusive [inhibitor, partial curve]
20 | CCOc1cc(C2Nc3cccc4cccc(c34)N2)ccc1O | active: 20 µM
21 | N#CC1=C(N)OC2=C(C(=O)CCC2)C1CCc1ccccc1 (configuration not stated) | inconclusive [inhibitor, single point]
22 | O=C(N/N=C/c1ccccn1)c1sc2ccccc2c1Cl | active: 11.2 µM
23 | O=C1c2ccccc2C(=O)N1CCCCN(C(=O)c1ccc(Cl)s1)c1ccc(Cl)cc1 | active: 4.47 µM
24 | COC(=O)c1ccc(C(=O)OC)c(NC(=O)COC(=O)C2CCC(C(C)(C)C)CC2)c1 (configuration not stated) | inconclusive [inhibitor, partial curve]

Row | SMILES | Potency
25 | COc1ccc(-c2nc(SCC(=O)Nc3cc(C)on3)n[nH]2)cc1 | inactive
26 | COC(Cc1n[nH]c(=S)n1-c1ccc(Cl)cc1)OC | inactive
27 | O=C(CN(C(=O)c1csnn1)c1cccc2c1CCCC2)NC1CCCC1 | inactive
28 | CCn1cc(CNC(=S)Nc2cccc(Cl)c2C)cn1 | inconclusive [inhibitor, single point]
29 | CC(C)Oc1ccc(C(=O)NNC(=O)c2ccccc2C(=O)O)cc1 | inconclusive [inhibitor, partial curve]
30 | O=C(/C=C/c1ccccc1)CC(O)(c1ccccc1)C(F)(F)F (configuration not stated) | inconclusive [inhibitor, single point]
31 | Cc1c(NC(=O)CSc2nc3ccccc3s2)c(=O)n(-c2ccccc2)n1C | inconclusive [inhibitor, single point]
32 | CCOC(=O)c1c2c(c(=S)n(-c3ccccc3)c1N)CCC2 | active: 14.1 µM
33 | Cc1cccc(C(=O)NC(CC(=O)O)c2ccc(OC3CCCC3)cc2)c1[N+](=O)[O-] (configuration not stated) | inconclusive [inhibitor, partial curve]
34 | CCC(=O)Nc1nnc(CCc2ccccc2)s1 | inconclusive [inhibitor, single point]
35 | C=C(C)CSC1=C(C#N)C(c2ccccc2Cl)CC(=O)N1 (configuration not stated) | inconclusive [inhibitor, single point]
36 | Cc1cc(=O)oc2cc(OC(=O)CCCCCN3C(=O)c4ccccc4C3=O)ccc12 | inconclusive [inhibitor, partial curve]
37 | CC(C)(C)c1ccc(-c2c(C#N)c(N)nc3c2CCCC3)s1 | inconclusive [inhibitor, single point]
38 | CN1CCN(C(c2ccccn2)c2cc(Cl)c3cccnc3c2O)CC1 (configuration not stated) | active: 10 µM
39 | CCOc1cc(CNc2ccc3c(c2)OCCO3)cc(Br)c1OCC | inconclusive [inhibitor, partial curve]
40 | Cc1ccc2[nH]c3c(=O)n(Cc4ccccn4)cnc3c2c1 | inconclusive [inhibitor, partial curve]
41 | O=C/C=C/c1ccc(O)cc1 | active: 3.55 µM
42 | Cc1cnc(CNc2ncncc2-c2ccoc2)cn1 | inconclusive [inhibitor, single point]
43 | CCc1c(C)nc(SC(C(=O)O)c2ccccc2)c(C#N)c1C (configuration not stated) | inactive
44 | Cc1cc(-c2n[nH]c(=S)n2/N=C/c2cccc([N+](=O)[O-])c2)n[nH]1 | inconclusive [inhibitor, single point]
45 | COCCCNC(=O)c1c[nH]c2ccc(S(=O)(=O)N3CCC4(CC3)OCCO4)cc2c1=O | inconclusive [inhibitor, partial curve]
46 | O=[N+]([O-])/C=C/c1cn(Cc2ccc(Cl)cc2)c2ccccc12 | inconclusive [inhibitor, partial curve]
47 | COC(=O)[C@H](C)[C@@H]1C[C@@]1(C)[C@@H](NC(=O)OCc1ccccc1)c1ccccc1 | inactive

— PubChem BioAssay AID1030 (National Center for Advancing Translational Sciences (NCATS), 2008)
